From the supplement of paper PMC9446081 come the findings set out here.

Screen size: about 39,000 compounds; about 220 (0.56%) showed activity. The list shows a part of the results.
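Note: static incubation at 37 °C against the wild-type strain, values averaged over two biological replicates.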

In the test the test system is Escherichia coli K-12 BW25113. In words: relative growth (OD600 normalised to plate interquartile mean) (fraction); higher = less growth inhibition, active = 0.2 or less. As to conditions: 50 µM; LB; incubation time: overnight (16-24 h).
Consider `C=CC1=C(C(=O)O)N2C(=O)[C@@H](NC(=O)/C(=N\OCC(=O)O)c3csc(N)n3)[C@H]2SC1`, for which the relative growth is active: 0.0479.
Regarding `Cc1ccc(S(=O)(=O)Nc2ccc3c(c2)CC(=O)N([C@H](C)CO)C[C@H](C)[C@@H](CN(C)Cc2ccc(Cl)c(Cl)c2)O3)cc1`, the relative growth was inactive: 0.96.
The value for `COc1ccc(S(=O)(=O)Nc2ccc3c(c2)C(=O)N([C@@H](C)CO)C[C@@H](C)[C@H](CN(C)Cc2ccc(Oc4ccccc4)cc2)O3)cc1` was inactive: 0.985.
For the molecule `C[C@H]1CN([C@@H](C)CO)C(=O)c2cc(NC(=O)Nc3ccc4c(c3)OCO4)ccc2O[C@@H]1CN(C)Cc1ccc(-c2ccccc2)cc1`, the relative growth is inactive: 0.995.
Consider `CO[C@H]1C[C@@H](C[C@@H](C)[C@H]2CC(=O)[C@@H](C)/C=C(/C)[C@@H](O)[C@@H](OC)C(=O)[C@@H](C)C[C@@H](C)C=C/C=C\C=C(C)[C@H](OC)C[C@H]3CC[C@@H](C)[C@@](O)(O3)C(=O)C(=O)N3CCCC[C@@H]3C(=O)O2)CC[C@@H]1O`, for which the relative growth is inactive: 0.99.
Regarding `CN(C)C(=O)C[C@H]1C=C[C@H](NC(=O)C2CCOCC2)[C@@H](CO)O1`, the relative growth was inactive: 0.992.
In the case of `C[C@@H]1CCCCO[C@H](CN(C)C(=O)Nc2cccc3ccccc23)[C@H](C)CN([C@@H](C)CO)C(=O)c2cc(NC(=O)Nc3ccc(F)cc3)ccc2O1`, the relative growth is inactive: 1.02.
As for `COCC(=O)N(C)C[C@@H]1Oc2cc(C#C[C@@H](C)O)ccc2S(=O)(=O)N([C@H](C)CO)C[C@@H]1C`, the figure is inactive: 1.03.
On to `C[C@H]1CCCCO[C@H](CN(C)C(=O)Nc2ccc(C(F)(F)F)cc2)[C@@H](C)CN([C@@H](C)CO)C(=O)c2cc(NS(=O)(=O)c3ccc(F)cc3)ccc2O1`, for which the relative growth is inactive: 1.01.
As for `C=CCOC(=O)[C@H]1[C@@H]2C(=O)O[C@@H](c3ccccc3)[C@@H](c3ccccc3)N2[C@@H](c2ccc(OCCOC(=O)[C@@H]3C[C@@H]4C(=O)N5CCC[C@H]5C(=O)N4[C@@H]3c3cccc(OCCO)c3)cc2)[C@]12C(=O)Nc1ccc(I)cc12`, the figure is inactive: 1.02.
`COc1ccc(CN(C)C[C@H]2OCCCC[C@H](C)Oc3ccc(NC(=O)C4CCCCC4)cc3C(=O)N([C@H](C)CO)C[C@H]2C)cc1`: the relative growth was inactive: 0.982.
As to `C[C@H]1CN([C@@H](C)CO)C(=O)c2cccc(NS(=O)(=O)c3cn(C)cn3)c2O[C@@H]1CN(C)Cc1ccc(C(=O)O)cc1`, the relative growth is inactive: 0.994.
In the case of `Oc1cccc(c1)/C/1=C/2\CC/C(=C(\c3cccc(c3)O)c3ccc([nH]3)/C(=C\3/C=CC(=N3)/C(=C\3/C=CC1=N3)c1cccc(c1)O)c1cccc(c1)O)N2`, the relative growth was inactive: 1.16.
The value for `CC(C)NC(=O)Nc1ccc2c(c1)C(=O)N([C@@H](C)CO)C[C@H](C)[C@H](CN(C)Cc1ccc(C(=O)O)cc1)O2` was inactive: 1; that for `C[C@@H]1CN([C@H](C)CO)C(=O)c2cc(NC(=O)Nc3ccc(C(F)(F)F)cc3)ccc2O[C@@H]1CN(C)Cc1ccc(Cl)c(Cl)c1` was inactive: 1.01.
As for `CCCCC(=O)c1ccc(O)cc1`, the figure is inactive: 0.939; as for `Cc1ccc(CCSc2ccc(Cl)c(Cl)c2)cn1`, inactive: 0.961; as for `COc1ccc(C#Cc2ccc3c(c2)[C@]2(C(=O)N3)[C@H](c3ccccc3OCCO)N3[C@H](c4ccccc4)[C@H](c4ccccc4)OC(=O)[C@H]3[C@@H]2C(=O)N2CCc3cc(OC)c(OC)cc3C2)cc1`, inactive: 1.07.
On to `C[C@@H]1CN([C@@H](C)CO)C(=O)c2cccc(NC(=O)Nc3ccc(C(F)(F)F)cc3)c2O[C@@H]1CN(C)S(C)(=O)=O`, for which the relative growth was inactive: 0.88.
Turning to `COc1ccc(S(=O)(=O)Nc2ccc3c(c2)CC(=O)N([C@@H](C)CO)C[C@@H](C)[C@H](CN(C)Cc2ccc(Oc4ccccc4)cc2)O3)cc1`, the relative growth is inactive: 0.996.
Regarding `C[C@@H]1CCCCO[C@H](CN(C)Cc2ccc(C(=O)O)cc2)[C@@H](C)CN([C@@H](C)CO)C(=O)c2cc(NC(=O)NC3CCCCC3)ccc2O1`, the relative growth was inactive: 0.973.
The value for `C[C@@H]1CCCCO[C@@H](CN(C)Cc2ccccc2)[C@@H](C)CN([C@H](C)CO)C(=O)c2cc(NC(=O)Cc3ccccc3)ccc2O1` was inactive: 1; that for `C[C@@H]1CN([C@H](C)CO)C(=O)Cc2cc(NC(=O)C3CCCCC3)ccc2O[C@H]1CN(C)Cc1ccc(C(F)(F)F)cc1` was inactive: 0.95.
In the case of `C[C@H](CO)N1C[C@H](C)[C@H](CN(C)C(=O)Nc2ccc(F)cc2)Oc2ccc(NC(=O)CCN3CCOCC3)cc2CC1=O`, the relative growth was inactive: 0.959.
The value for `C[C@H](CO)N1C[C@H](C)[C@@H](CN(C)S(=O)(=O)c2cn(C)cn2)OCCCC[C@H](C)Oc2ccc(NC(=O)Nc3cccc4ccccc34)cc2C1=O` was inactive: 1.02; that for `C[C@@H]1CCCCO[C@@H](CN(C)Cc2ccc(C(F)(F)F)cc2)[C@@H](C)CN([C@@H](C)CO)C(=O)c2cc(NC(=O)Cc3ccccc3)ccc2O1` was inactive: 1.02.
As for `C[C@H](N)C(=O)N1CCc2ccccc2C1`, the relative growth is inactive: 0.99.
For `C[C@H](CO)N1C[C@H](C)[C@H](CN(C)C(=O)Nc2cccc3ccccc23)Oc2ncc(C#Cc3cccc(F)c3)cc2C1=O`, the relative growth is inactive: 0.992.
In the case of `O=C(C[C@@H]1CC[C@H]2[C@@H](COC[C@@H](O)CN2S(=O)(=O)c2ccccc2F)O1)N1CCC(Cc2ccccc2)CC1`, the relative growth was inactive: 1.02.
Take `CN1CCN(C(=O)C[C@H]2CC[C@@H]3[C@H](COC[C@@H](O)CN3C(=O)Nc3cc(Cl)cc(Cl)c3)O2)CC1`: the relative growth is inactive: 0.946.
As for `CC1=CC2=NC(=O)C[C@](C)(C(=O)O)N2C=C1`, the figure is inactive: 1.01; as for `O=C(Cn1c(CO)c[nH]c1=S)NC1CC1`, inactive: 1.06.
As to `C[C@H](CO)N1C[C@H](C)[C@@H](CN(C)S(=O)(=O)c2ccc(Cl)cc2)OCCCC[C@H](C)Oc2ccc(NC(=O)Nc3ccc(F)cc3)cc2C1=O`, the relative growth is inactive: 1.05.
Consider `C[C@@H]1CN([C@@H](C)CO)C(=O)Cc2cc(NC(=O)Cn3cnnn3)ccc2O[C@@H]1CN(C)C(=O)Nc1ccc(C(F)(F)F)cc1`, for which the relative growth is inactive: 0.984.
As for `CCOC(=O)c1cccc(C(=O)O)n1`, the figure is inactive: 1.01; as for `Cc1ccc(S(=O)(=O)N(C)C[C@H]2OCCCC[C@H](C)Oc3ccc(NC(=O)Cc4ccccc4)cc3C(=O)N([C@@H](C)CO)C[C@H]2C)cc1`, inactive: 1.
The value for `C[C@@H]1CN([C@@H](C)CO)C(=O)Cc2cc(NC(=O)C3CC3)ccc2O[C@H]1CN(C)C(=O)NC1CCCCC1` was inactive: 0.989; that for `S=C(SN1CCOCC1)N1CCOCC1` was inactive: 0.98; that for `COc1ccc(S(=O)(=O)Nc2cccc3c2O[C@@H](CN(C)Cc2ccc(Oc4ccccc4)cc2)[C@H](C)CN([C@H](C)CO)C3=O)cc1` was inactive: 1.05.
As to `CC(C)NC(=O)N(C)C[C@H]1OCCCC[C@@H](C)Oc2ccc(NS(C)(=O)=O)cc2C(=O)N([C@H](C)CO)C[C@@H]1C`, the relative growth is inactive: 0.984.
On to `CC(C)C[C@@](O)(CC(=O)O)C(=O)O`, for which the relative growth was inactive: 0.977.
The value for `CO[C@@H]1CN(C)C(=O)c2cc(NC(=O)CC(F)(F)F)ccc2OC[C@@H](C)N(S(=O)(=O)c2cn(C)cn2)C[C@H]1C` was inactive: 1.02; that for `COc1cccc(-c2cnc3c(c2)C(=O)N([C@H](C)CO)C[C@H](C)[C@H](CN(C)S(=O)(=O)c2cccc(OC)c2)O3)c1` was inactive: 1.01; that for `CCCNC(=O)[C@@]1(Sc2ccc(C)cc2)CC(=O)N(Cc2cc(C(F)(F)F)cc(C(F)(F)F)c2)[C@@H]1c1ccc(CO)cc1I` was inactive: 1.
Turning to `COc1cc(F)c(C(C)C)cc1-c1ccc(C(F)(F)F)cc1CN1C(=O)O[C@H](c2cc(C(F)(F)F)cc(C(F)(F)F)c2)[C@@H]1C`, the relative growth is inactive: 1.03.
For the molecule `COc1cc(NC(=O)c2cccs2)c(C(=O)OCC(=O)c2cc(C)n(-c3ccccc3)c2C)cc1OC`, the relative growth is inactive: 0.995.
Regarding `COc1ccc(S(=O)(=O)N(C)C[C@H]2OCCCC[C@H](C)Oc3ccc(NC(=O)Nc4ccccc4)cc3C(=O)N([C@@H](C)CO)C[C@@H]2C)cc1`, the relative growth was inactive: 1.03.
As for `C[C@H]1CN([C@@H](C)CO)C(=O)c2cc(C#Cc3cccnc3)cnc2O[C@H]1CN(C)Cc1ccc(F)cc1`, the figure is inactive: 1.
The value for `Cc1noc(C)c1S(=O)(=O)Nc1ccc2c(c1)CC(=O)N([C@H](C)CO)C[C@H](C)[C@H](CN(C)Cc1ccc(Oc3ccccc3)cc1)O2` was inactive: 1.01; that for `C[C@@H]1CCCCO[C@@H](CN(C)S(=O)(=O)c2ccc(Cl)cc2)[C@H](C)CN([C@@H](C)CO)C(=O)c2cc(NS(=O)(=O)c3ccc(Cl)cc3)ccc2O1` was inactive: 1.02; that for `C[C@H]1CCCCO[C@H](CN(C)Cc2ccncc2)[C@@H](C)CN([C@@H](C)CO)C(=O)c2cc(NS(C)(=O)=O)ccc2O1` was inactive: 1.02.
The value for `COc1ccc(S(=O)(=O)Nc2ccc3c(c2)C(=O)N([C@@H](C)CO)C[C@H](C)[C@@H](CN(C)C(=O)Nc2ccc(C(F)(F)F)cc2)OCCCC[C@H](C)O3)cc1` was inactive: 1.05; that for `C[C@@H]1CN([C@@H](C)CO)C(=O)c2cccc(NS(C)(=O)=O)c2O[C@H]1CN(C)Cc1ccc(C(F)(F)F)cc1` was inactive: 0.979; that for `CC(=O)NC(=O)N[C@H]1CSC[C@@H]1OC(C)=O` was inactive: 1.
As for `C[C@@H]1CN([C@H](C)CO)C(=O)c2cc(NS(=O)(=O)c3cn(C)cn3)ccc2O[C@@H](C)CCCCO[C@@H]1CN(C)C(=O)CCCN(C)C`, the relative growth was inactive: 1.05.
In the case of `C[C@H]1CN([C@@H](C)CO)C(=O)CCCn2nncc2CO[C@@H]1CN(C)C(=O)Nc1ccc2c(c1)OCCO2`, the relative growth is inactive: 0.906.
For the molecule `O=C(C[C@H]1CC[C@@H](NC(=O)CN2CCOCC2)[C@@H](CO)O1)NC1CCC1`, the relative growth was inactive: 1.01.
